Source: publication PMC4336329 (PLoS ONE, 2015)
Hit rate of the full screen: of about 310,000 compounds, about 14,000 (4.5%) showed an effect of 50% or more. The effect is printed as a negative number. The list shows a part of the results.

Molecular target: human ether-à-go-go-related gene (hERG) potassium channel (human, UniProt Q12809)
Test: primary screen, population patch clamp on CHO cells stably expressing hERG
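Also: peak tail current of the secondary pulse compared with the same well before compound.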

Chain of human ether-à-go-go-related gene (hERG) potassium channel (Q12809 whole entry, looked up): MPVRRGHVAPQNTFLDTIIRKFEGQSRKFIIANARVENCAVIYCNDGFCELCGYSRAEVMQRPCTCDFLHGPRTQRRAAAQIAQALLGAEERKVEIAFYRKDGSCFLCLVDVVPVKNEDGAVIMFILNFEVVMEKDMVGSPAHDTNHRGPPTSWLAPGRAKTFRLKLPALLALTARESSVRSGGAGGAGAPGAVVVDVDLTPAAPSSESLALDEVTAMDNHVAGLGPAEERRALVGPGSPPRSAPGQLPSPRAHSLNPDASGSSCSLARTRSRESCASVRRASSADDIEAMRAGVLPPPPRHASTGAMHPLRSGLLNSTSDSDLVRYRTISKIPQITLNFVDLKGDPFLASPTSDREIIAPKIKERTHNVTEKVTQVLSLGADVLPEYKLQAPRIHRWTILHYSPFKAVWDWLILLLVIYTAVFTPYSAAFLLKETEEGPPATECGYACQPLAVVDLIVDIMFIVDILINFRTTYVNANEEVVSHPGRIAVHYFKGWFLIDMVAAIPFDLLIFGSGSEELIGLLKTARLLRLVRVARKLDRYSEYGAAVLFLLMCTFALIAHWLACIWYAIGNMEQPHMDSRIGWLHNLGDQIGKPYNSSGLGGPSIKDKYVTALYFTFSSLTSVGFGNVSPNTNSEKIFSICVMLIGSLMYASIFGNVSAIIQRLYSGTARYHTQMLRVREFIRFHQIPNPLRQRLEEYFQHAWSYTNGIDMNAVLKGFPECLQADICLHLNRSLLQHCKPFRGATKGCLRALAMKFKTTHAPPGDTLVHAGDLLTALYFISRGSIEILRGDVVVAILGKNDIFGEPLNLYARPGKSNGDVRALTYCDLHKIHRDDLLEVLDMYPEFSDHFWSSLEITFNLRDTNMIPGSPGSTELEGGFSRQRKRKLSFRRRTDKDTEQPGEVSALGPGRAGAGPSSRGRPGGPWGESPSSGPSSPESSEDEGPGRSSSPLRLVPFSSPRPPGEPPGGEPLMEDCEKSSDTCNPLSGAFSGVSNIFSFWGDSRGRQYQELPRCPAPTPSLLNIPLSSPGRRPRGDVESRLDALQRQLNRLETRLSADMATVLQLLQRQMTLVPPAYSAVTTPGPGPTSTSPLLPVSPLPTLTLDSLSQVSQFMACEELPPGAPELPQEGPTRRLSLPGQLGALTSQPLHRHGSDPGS

In order of falling “hERG current change (%, negative = inhibition) at 10uM” value:
1. O=C(CN1CC(=O)Nc2ccccc21)NCCc1ccc(Cl)cc1Cl  58.5%
2. O=C(COC(=O)CSc1ccc([N+](=O)[O-])cc1)NC1CCCCCCC1  39.1%
3. Cc1ccc(NC(=O)COC(=O)c2ccc3c(c2)C(=O)N(CCc2ccccc2)C3=O)c(C)c1  23.9%
4. CCOc1ccc(NC(=O)C2CCCN(S(C)(=O)=O)C2)cc1 (stereo not drawn)  23.5%
5. O=C(CSc1nnc(-c2ccc(O)cc2)o1)Nc1ccccc1Br  20.1%
6. COc1ccc(NC(=O)Cn2cnc3sc(C)c(S(=O)(=O)N4CCN(C)CC4)c3c2=O)cc1OC  18.3%
7. O=C(O)CCC(=O)Nc1cccc(C(=O)c2ccccc2)c1  16.5%
8. COc1cccc(CNC(=O)c2ccc3c(c2)N(C)CCS3)c1OC  15.6%
9. CN(C)S(=O)(=O)c1ccc(N2CCCC2)c(C(=O)NC2CCC(O)CC2)c1 (stereo not drawn)  13.2%
10. O=C(Nc1ccc(F)cc1)Oc1ccc[nH]c1=O  12%
11. NCc1nc(-c2ccc(Cl)cc2)no1  11.2%
12. COc1cc(C(C2C(=O)CC(C)(C)CC2=O)C2C(=O)CC(C)(C)CC2=O)ccc1OC(C)=O  8.75%
13. Nn1cnc2cc3ccccc3cc2c1=O  8.16%
14. CS(=O)(=O)N1CCCC(C(=O)N2CCOCC2)C1 (stereo not drawn)  7.7%
15. O=C(Cc1c(C(=O)O)[nH]c2ccccc12)Nc1ccc2c(c1)OCO2  7.38%
16. c1ccc(-c2nc(NCc3cccs3)c3ccccc3n2)cc1  7.27%
17. CC1CN(C(=O)Nc2ccc3c(c2)OCO3)CC(C)O1 (stereo not drawn)  7.02%
18. O=C(NCc1cccnc1)Nc1ccccc1F  6.96%
19. Cc1cc2c(cc(C(=O)OC(C(=O)NCC3CCCO3)C(C)C)n2C)o1 (stereo not drawn)  6.2%
20. COc1ccccc1P(=O)(Cc1ccccc1)c1ccccc1 (stereo not drawn)  3.3%
21. N#CC1=C2C=CC=CN2CC1=O  2.52%
22. Cn1c(=NC(=O)COc2ccccc2)sc2cccc(F)c21  1.94%
23. COc1cc2occc2c2oc(=O)ccc12  0.24%
24. CCOc1ccc(NC(=O)C2=C(C)C(=O)OC23CCC(C)CC3)cc1 (stereo not drawn)  -0.164%
25. COc1ccccc1C(=O)NC(=O)COC(=O)c1ccc(C)o1  -2.16%
26. COc1ccc(-c2nc(C3CCCCC3)no2)cc1OC  -6.93%
27. Nc1c(-c2ccccc2)nc(Cl)nc1-c1ccccc1  -7.33%
28. Cc1ccc(C)c(NC(=O)CN(C)S(=O)(=O)c2cccc3cccnc23)c1  -10.4%
29. CCN(CC)S(=O)(=O)c1ccc2[nH]c(=O)[nH]c2c1  -11.4%
30. CCN1CCN(c2ccc(Nc3ccnc4ccccc34)cc2)CC1  -12.7%
31. Cc1nc2ccccc2c(=O)n1NC(=O)c1cc(Br)ccc1Cl  -17.6%
32. Cc1ccc(C(=O)OC2CCS(=O)(=O)c3sccc32)cc1 (stereo not drawn)  -17.9%
33. CCOC(=O)c1ccc(NC(=O)c2ccccc2C)cc1  -21.2%
34. FC(F)(F)c1cccc(NC(=S)NCC(c2cccnc2)N2CCOCC2)c1 (stereo not drawn)  -21.4%
35. O=C(Nc1nc(-c2ccccn2)cs1)c1cc(S(=O)(=O)N2CCOCC2)ccc1F  -21.6%
36. CS(=O)(=O)N(CC(=O)NCc1ccccc1)Cc1ccc(Cl)cc1  -25.4%
37. O=C(Nc1c2c(nn1-c1ccc([N+](=O)[O-])cc1)CS(=O)(=O)C2)C1CC1  -30.6%
38. Cc1cc(C)cc(-n2c(N)c(C(=O)Nc3c(C)n(C)n(-c4ccccc4)c3=O)c3nc4ccccc4nc32)c1  -36.5%
39. O=[N+]([O-])c1ccc(NCCNS(=O)(=O)c2ccccc2)cc1  -38.9%
40. CCCCCSc1nnc2c(n1)OC(C)N(C(C)=O)c1ccccc1-2 (stereo not drawn)  -41%
41. O=C(NCCN1CCOCC1)c1ccc(CSCc2cccc(Cl)c2)o1  -43.7%
42. COCCCN=C1NN=C(c2cc(C)n(Cc3ccco3)c2C)CS1.Cl  -47.8%
43. CC1CN(c2ccc(C(F)(F)F)cc2[N+](=O)[O-])CCN1S(C)(=O)=O (stereo not drawn)  -56.9%
44. COc1ccc(C(=O)C2CCCN(Cc3c(C)[nH]c4ccccc34)C2)c(OC)c1 (stereo not drawn)  -70.1%
45. COc1ccc(-c2cc(=O)oc3cc(OCC(C)=O)ccc23)cc1  -74.6%
